Out of some 48,000 compounds screened, about 120 (0.25%) were called active. About 4% were inconclusive and are not listed. The call rests on the fitted dose curve; in most records, active means well fitted activation curve with a large enough effect; inconclusive means small, poorly fitted or top-dose-only effect, or another doubt; inactive means no such curve, though single readings can be large or run the other way. This is a selection; strong and weak results do not stand in their true shares. The source gives no active or inactive call for entries shown without one.
Experiment: Primary qHTS for Identification of Small Molecule Activators of Huntingtin-Antisense Promoter Activity; further: nearly all actives have a fitted effect of over 55% in size
Conditions: HEK293 HTT-AS promoter firefly luciferase reporter, 24 h; activity change, positive = activation: at 57.5 µM (top of the series), percent change from vehicle, -100% = no light
In short: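 Firefly luciferase readout (Dual-Glo, 10 min RT) after 24 h, 37 °C compound exposure (final up to 57.5 uM) of HEK293 reporter cells cultured 24 h beforehand; PTC124 at 50 uM final as control inhibitor; activity scaled vehicle 0%, zero RLU -100%.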
Potency means the concentration at half of the fitted maximal effect.

Compound	activity change, positive = activation	Potency
CC1CCCc2sc3nc(SCC(=O)c4ccc(Br)cc4)nc(N)c3c21 (configuration not stated)	-12.9%	
C#Cc1ccc(-c2ccccc2F)cc1	inactive: -1.21%	
CC(=O)N1CCc2c(sc(NC(=O)CSc3ccccc3)c2-c2nc3ccccc3s2)C1	inactive: -27.9%	
CCOc1ccc2nc(Cl)c(C3CC(c4ccc(OC)cc4)=NN3S(C)(=O)=O)cc2c1 (configuration not stated)	-13.8%	
Cc1cc(F)ccc1NC(=O)CCS(=O)(=O)c1ccc2c(c1)CC(C)N2C(=O)C1CC1 (configuration not stated)	-12.3%	
Cc1ccccc1NC(=O)CSc1nnc(COc2ccc(Cl)cc2)o1	-10.4%	
Cc1ccc(O)c(NC(=O)c2noc3c2CCCC3)c1	75.1%	
Cc1c(Cl)cccc1NC(=O)CC(c1ccc(F)cc1)N1Cc2ccccc2C1=O (configuration not stated)	-52.6%	
O=C(NCCCc1nc2ccccc2n1Cc1ccccc1Cl)c1ccco1	-24%	
NC(=O)c1ccc(NC(=O)C2CCN(S(=O)(=O)Cc3ccccc3)CC2)cc1	4.43%	
CCn1ccc2c(OCC(=O)NCc3ccccc3)cccc2c1=O	inactive: -10.5%	
COc1ccc(Cl)cc1S(=O)(=O)Nc1cccc(-c2ccc(N3CCCC3)nn2)c1	2.91%	
COc1ccc2c(c1)cc1c(=O)n(CC(=O)NCCCOC(C)C)nc(C)n12	-5.84%	
CCOC(=O)c1ccc(N2CCN(c3cc(C)ccc3C)CC2)c(NC(=O)Nc2ccc(CC)cc2)c1	-2.37%	
Cc1ccc(NC(=O)c2c(C(=O)Nc3ccccc3)sc3nc(C)cc(=O)n23)cc1	-9.27%	
O=C(O)[C@H](CC(=O)N1C[C@@H]2CCCC[C@H]2C1)Cc1ccccc1	inactive: -3.78%	
O=S(=O)(Nc1cccc(-c2ccc(N3CCCC3)nn2)c1)c1cc(F)ccc1F	3.21%	
CCOC(=O)c1c(C)n(S(=O)(=O)c2ccc(C)cc2)c2ccc(NS(=O)(=O)c3ccc(C)cc3)cc12	-19.2%	
Cc1ccccc1Nc1nnc(-c2ccc(C)c(S(=O)(=O)N3CCCCC3)c2)c2ccccc12	-32.2%	
Cc1ccccc1C(=O)Nc1ccc2oc(-c3ccc(Cl)c(Cl)c3)nc2c1	15.3%	
Cc1ccc(COc2cccc3cc(-c4noc(-c5ccc(C)cc5)n4)c(=O)oc23)cc1	inactive: 0.114%	
CCOc1ccc(CCNC(=O)Cn2nc(CC)n3c(cc4c(OC)cccc43)c2=O)cc1OCC	-7.65%	
CCc1nn2c(=O)c(S(=O)(=O)Nc3ccc(C)cc3C)c(C)nc2s1	-23.3%	
Cc1cc(Cl)ccc1NC(=O)CCS(=O)(=O)c1ccc2c(c1)CC(C)N2C(=O)C1CC1 (configuration not stated)	-20.1%	
O=C(Nc1cc(Cl)ccc1O)c1cc(-c2ccc3c(c2)OCO3)on1	76.3%	

Compound	activity change, positive = activation	Potency
CCOC(=O)Cn1c(=N)n(CCOc2ccc(OC)cc2)c2ccccc21	2.36%	
Cn1c(CNC(=O)CSc2nc(-c3ccccc3F)nc3cc(=O)[nH]n23)nc2ccccc21	1.3%	
CCCOc1ccc(C2C(=O)N(C3CCCCCC3)CC(=O)N2C(C)C)cc1OC (configuration not stated)	-2.01%	
CCOC(=O)CSc1nnc(-c2ccc(OC)cc2)o1	-40%	
CCc1cccc(CC)c1NC(=O)c1c(C)oc2ccc(O)c(CN3CCN(C)CC3)c12	2.37%	
CCOc1ccccc1CNC(=O)c1nc(-c2ccc(Cl)cc2)n2c1CCCCC2	-40.4%	
CCCOc1ccc(NC(=O)CC2C(=O)N(c3ccccc3)C(=O)N2Cc2ccc(F)cc2)cc1 (configuration not stated)	-29.4%	
COc1ccc2c(C)c(CCC(=O)NCCc3ccc(OC)c(OC)c3)c(=O)oc2c1	-12.9%	
CC(=O)Nc1cc(C(=O)NCc2ccc(F)cc2)ccc1S(=O)(=O)c1ccc(C)cc1	inactive: -26.1%	
CCOC(=O)c1ccc(NC(=O)CC2C(=O)N(c3cccc(OC)c3)C(=O)N2Cc2cccnc2)cc1 (configuration not stated)	-5.17%	
O=C(Nc1cc(C(F)(F)F)ccc1Cl)c1noc2c1CCCCC2	-2.67%	
COc1ccc(-c2cc(C(=O)Nc3cccc(C(C)=O)c3)no2)cc1OC	0.898%	
N#CC1=C2SCN(C3CCCCC3)CN2C(=O)CC1c1ccc(Br)cc1 (configuration not stated)	inactive: -12.4%	
CC1CCC(N2CC(=O)N(C3CCCCC3)C(c3ccc(Cl)cc3)C2=O)CC1 (configuration not stated)	-10.6%	
CCOc1ccccc1CNC(=O)CCc1c(C)nn(-c2ccc(N3CCCCC3)nn2)c1C	0.341%	
O=S(=O)(Nc1ccc(-c2ccc(N3CCCC3)nn2)cc1)c1ccc(C(F)(F)F)cc1	-4.99%	
CCN(CC)CCOc1ccc(C(=C(Cl)c2ccccc2)c2ccccc2)cc1		active: 24.3 µM
O=C(NCCc1nc2ccccc2n1Cc1c(F)cccc1Cl)c1ccco1	-35%	
CC1CCC(N2CC(=O)N(CCC3=CCCCC3)C(c3ccc(F)cc3)C2=O)CC1 (configuration not stated)	-4.06%	
Cc1c(NC(=O)c2cc(-c3ccccc3O)on2)c(=O)n(-c2ccccc2)n1C	6.82%	
CCCOc1ccc(NC(=O)CC2C(=O)N(c3ccc(C)cc3)C(=O)N2CCc2ccncc2)cc1 (configuration not stated)	-11.6%	
CCCC12CN3CC(C)(CN(C1)C3c1ccccc1Cl)C2=O (configuration not stated)	-0.991%	
CCC1CCCCN1CCCNC(=O)c1ccc2c(c1)N(Cc1ccccc1F)C(=O)c1ccccc1S2(=O)=O (configuration not stated)	inactive: -33.1%	
Cc1ccc(S(=O)(=O)Nc2cc(Cl)ccc2C(=O)Nc2nc(-c3ccccc3)cs2)cc1	inactive: -16%	
COC(=O)c1nnn(CC(=O)Nc2cc(F)ccc2F)c1C(=O)OC	inactive: -3.74%	

Compound	activity change, positive = activation	Potency
CCOc1ccc(-c2cc3c(=O)n(CC(=O)NCc4ccc(OC)cc4)ccn3n2)cc1		active: 0.447 µM
CC(=O)c1cccc(NCc2ccccc2-c2nnc(-c3ccccc3)o2)c1	35.3%	
CCOc1ccc(S(=O)(=O)N2CCC(N3CCN(Cc4ccc(F)cc4)C(=O)C3=O)CC2)cc1	-11.2%	
CCOc1ccc(C(=O)NCCc2sc(-c3cccc(F)c3)nc2C)cc1OCC	inactive: -23.3%	
Cc1cc(C)c(NC(=O)Nc2sc3nc4n(c(=O)c3c2C)CCC(C)CC4)c(C)c1 (configuration not stated)	-10.8%	
Cc1cc(C)cc(Nc2ncnc3sc4c(c23)CCCC4)c1	inactive: -15.7%	
COc1ccc2cc(-c3nc(-c4ccc(S(C)=O)cc4)[nH]c3-c3ccncc3)ccc2c1 (configuration not stated)	inactive: -18.5%	
O=C(c1cc(-c2cccc(Cl)c2)on1)N1CCN(c2ccccc2)CC1	2.39%	
Cc1cccc(N2C(=O)C(CC(=O)Nc3ccc(Cl)cc3)N(Cc3ccco3)C2=O)c1 (configuration not stated)	-21.8%	
Cc1oc2ccc(O)c(CN3CCN(C)CC3)c2c1C(=O)Nc1cccc(Cl)c1C	0.135%	
Cc1cc(-c2ccc(CC(=O)Nc3ccc(-c4cccnc4)cc3)cc2)ccn1	inactive: -32.5%	
Cn1c(=O)c2cc(C(=O)NCCCN3CCN(c4cccc(Cl)c4)CC3)sc2c2ccccc21	inactive: -9.16%	
Cc1ccc(NC(=O)CSc2nccn2Cc2ccco2)cc1Cl		active: 12.6 µM
Cc1ccc(CNC(=O)CCc2c(C)c3ccc(O)c(C)c3oc2=O)cc1	-12.4%	
CC1CCc2c(sc(NC(=O)c3cc(-c4cccc(Cl)c4)on3)c2C(N)=O)C1 (configuration not stated)	2.14%	
O=C(CSc1cn(CCNC(=O)c2ccccc2F)c2ccccc12)Nc1ccccc1F	inactive: -16.2%	
COC(=O)Cc1c(C)c2cc3c(c(C)c2oc1=O)OCN(CCc1ccccc1F)C3	-25.5%	
Cc1ccc(Cl)cc1-n1ncc2c(NC3CCCCC3)ncnc21	inactive: -11.7%	
Cc1ccc(C(=O)O)cc1-n1c(C)ccc1-c1ccccc1	5.75%	
COc1cc(OC)c2c(C)c(CC(=O)NCCc3ccccc3OC)c(=O)oc2c1	1.36%	
CC(C)c1cc(C(=O)NC(C)c2ccccc2)no1 (configuration not stated)	11.8%	
COc1ccc(-c2cc(C(=O)NCc3ccc(F)cc3)no2)cc1	0.931%	
Cc1ccc(CNC(=O)Cn2c(=O)ccc3cc(S(=O)(=O)N4CCCC4)ccc32)cc1	inactive: -19.3%	
Cc1nn(CC(=O)N2CCN(c3ccccc3)CC2)c(=O)c2cc3cc(F)ccc3n12	-0.0091%	
CCCCNS(=O)(=O)c1ccc(NC(=O)c2c(-c3ccccc3)noc2C)cc1	-10.5%	

Compound	activity change, positive = activation	Potency
Cc1ccnc(NC(c2cccc(O)c2)c2ccc3ccc(C)nc3c2O)c1 (configuration not stated)	inactive: -10.1%	
COc1ccccc1N1CCN(S(=O)(=O)c2cc(C(=O)Nc3ccc(Oc4ccccc4)cc3)ccc2F)CC1	inactive: -41.6%	
COc1ccc(-c2nc3ccccc3s2)cc1NC(=O)c1cc(OC)c(OC)c(OC)c1	70.8%	
Cn1c(=O)c2c(-c3ccccc3)n3c(c2n(C)c1=O)C(c1ccc([N+](=O)[O-])cc1)Nc1ccccc1-3 (configuration not stated)	-17.6%	
Cc1oc2ccc(O)c(CN3CCCCC3C)c2c1C(=O)Nc1ccccc1 (configuration not stated)	-13%	
Cc1ccccc1CSCCNC(=O)C1CCN(S(=O)(=O)Cc2ccccc2)CC1	-5.33%	
O=C(NCC(c1cccs1)S(=O)(=O)c1cccs1)c1ccc(F)c(F)c1 (configuration not stated)	inactive: -18.5%	
CCN(CC)c1ccc(C(=O)N2CCc3c([nH]c4ccccc34)C2c2ccc(F)cc2)cc1 (configuration not stated)	inactive: -22.7%	
CC(C)Cc1cc(C(=O)NCc2ccc(Cl)cc2)no1	12.8%	
COC(=O)CN1C(=O)CSc2ccc(S(=O)(=O)Nc3ccc(F)c(Cl)c3)cc21	-7.59%	
CC(C)c1ccc(C2CC(=O)Nc3cc4c(cc32)OCCO4)cc1 (configuration not stated)	inactive: -43.4%	
Cc1c(Cl)cccc1NC(=O)c1cc(-c2ccc3c(c2)OCO3)on1	10.1%	
Cc1nn(CC(=O)NC2CC2)c(=O)c2cc3cc(F)ccc3n12	-9.4%	
Cc1ccc(NC(=O)c2ccc3c(c2)NC(=O)c2ccccc2S3)c(Cl)c1	-42.3%	
CC(C)COc1ccc(C(=O)N2CCCCC2CCN2CCOCC2)cc1 (configuration not stated)	inactive: -4.62%	
COc1ccccc1C(=O)N(c1ccc(C)cc1)S(=O)(=O)c1ccc(Cl)cc1	-27.3%	
Cc1nc2cccnc2n1C1CCN(S(C)(=O)=O)CC1	-7.61%	
CN(CCCNC(=O)c1cc2c(Cl)nc3ccccc3c2s1)Cc1ccccc1	inactive: -23.2%	
COc1ccc(Br)c(C(=O)Nc2cc3c(cc2N2CCOCC2)n(C)c(=O)n3C)c1	2.69%	
CC(=O)c1cccc(NC(=O)Cn2c(-c3cncs3)nc3ccccc32)c1	-19.9%	
CCOC(=O)c1cccc(NC(=O)CC2C(=O)N(c3ccccc3)C(=O)N2Cc2ccco2)c1 (configuration not stated)	-15.3%	
CC(C)CCSc1nc2c(c(=O)n(C)c(=O)n2C)n1Cc1ccccc1Cl	18.1%	

From PubChem BioAssay AID1508624 (National Center for Advancing Translational Sciences (NCATS), 2021)
